US20220023399A1, “BLOOD COMPONENT POTENTIATION OF LYTIC PROTEIN ANTI-BACTERIAL ACTIVITY AND METHODS AND USES THEREOF” (priority 2017, published 2022)

System: S. aureus strain MW2
Experiment: Lytic assay (loss of optical density) and specific activity
Conditions: in the absence of PlySs2 (CF-301); all concentrations tested
Method: The effect of HuLYZ and HSA on PlySs2 (CF-301) activity was examined using additional formats. First, the time-kill assay was used to combine a sub-MIC amount of PlySs2 (CF-301) with a range of HuLYZ concentrations from 1-35 μg/mL (FIG. 8A). While HuLYZ alone has no anti-staphylococcal activity (21), the concentration in human blood is reported to vary between 1 and 35 μg/mL (22). At HuLYZ concentrations above 5 μg/mL a synergistic interaction was detected based on ≥2-log 10 CFU/mL reductions at 24 hours for the combinations compared to PlySs2 (CF-301) alone. In a second in vitro assay based on loss of optical density in a treated culture, the addition of both HuLYZ (FIG. 8B) and HSA (FIG. 8C) across a range of concentrations stimulated high-level PlySs2 (CF-301) activity. […]
Lytic assays. […] Samples were mixed and optical density at 600 nm (OD600) was followed for 15 minutes at room temperature in a SpectraMax M5 Microplate Reader (Molecular Devices).
A variation of the lytic assay was performed to determine PlySs2 (CF-301) specific activity. […] Each plate was read at 600 nm for 15 minutes (shaking for 3 seconds between reads) at room temperature using a microplate reader as above. The specific activity in Units/mg of PlySs2 (CF-301) was determined based on the PlySs2 (CF-301) dilutions displaying curves just above and below the optical density that is 50% of the buffer control at 15 minutes.

HSA: human serum albumin, purified or recombinantly expressed; SEQ ID NO:1
antibacterial activity of the blood component alone: no antibacterial activity
